# About 2,200 (0.71%) of roughly 310,000 compounds showed an effect of 50% or more. Effects have a minus sign here. This is one part of the list.
# Target: human ether-à-go-go-related gene (hERG) potassium channel (human, UniProt Q12809)
# Assay: primary screen, population patch clamp on CHO cells stably expressing hERG
# Sequence of human ether-à-go-go-related gene (hERG) potassium channel (Q12809 whole entry, looked up): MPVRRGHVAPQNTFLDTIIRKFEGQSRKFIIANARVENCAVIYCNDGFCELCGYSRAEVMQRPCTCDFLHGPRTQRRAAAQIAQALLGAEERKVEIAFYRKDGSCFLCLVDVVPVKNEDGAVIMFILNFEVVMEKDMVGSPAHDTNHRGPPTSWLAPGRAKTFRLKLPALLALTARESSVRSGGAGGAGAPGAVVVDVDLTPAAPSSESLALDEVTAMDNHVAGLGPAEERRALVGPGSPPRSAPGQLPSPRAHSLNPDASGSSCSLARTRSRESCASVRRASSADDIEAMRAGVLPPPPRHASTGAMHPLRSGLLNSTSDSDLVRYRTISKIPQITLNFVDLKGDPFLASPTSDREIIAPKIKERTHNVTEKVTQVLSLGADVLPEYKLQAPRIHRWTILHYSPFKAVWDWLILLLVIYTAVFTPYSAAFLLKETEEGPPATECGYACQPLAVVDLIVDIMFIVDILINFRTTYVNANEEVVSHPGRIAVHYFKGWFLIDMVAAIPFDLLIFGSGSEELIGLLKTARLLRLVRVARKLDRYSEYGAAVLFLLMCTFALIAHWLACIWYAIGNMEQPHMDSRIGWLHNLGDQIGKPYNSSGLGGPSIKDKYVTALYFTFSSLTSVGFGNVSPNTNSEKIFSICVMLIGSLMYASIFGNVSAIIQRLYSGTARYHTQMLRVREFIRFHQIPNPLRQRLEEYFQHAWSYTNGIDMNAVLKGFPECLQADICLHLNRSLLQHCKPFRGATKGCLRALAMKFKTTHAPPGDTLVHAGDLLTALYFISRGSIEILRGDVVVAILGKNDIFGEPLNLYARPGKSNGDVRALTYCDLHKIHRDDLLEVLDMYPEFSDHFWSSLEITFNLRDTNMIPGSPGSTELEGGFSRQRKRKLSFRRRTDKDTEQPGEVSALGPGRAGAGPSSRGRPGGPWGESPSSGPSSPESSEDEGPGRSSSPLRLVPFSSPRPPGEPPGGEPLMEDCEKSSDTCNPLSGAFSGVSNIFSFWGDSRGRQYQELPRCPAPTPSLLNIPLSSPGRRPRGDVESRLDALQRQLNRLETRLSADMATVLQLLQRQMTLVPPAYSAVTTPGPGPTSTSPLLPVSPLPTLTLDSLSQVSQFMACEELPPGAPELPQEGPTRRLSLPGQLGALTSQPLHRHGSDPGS
row,SMILES,"hERG current change (%, negative = inhibition) at 1uM [%]"
1,CCc1c(C(=O)NNC(=S)NCCc2ccccc2)csc1C,4.13
2,Cc1c(C(=O)N2CCCC2)oc2c1-c1nn(CC(=O)NCCCOC(C)C)cc1CC2,16.7
3,COC(=O)c1ccc(COc2cccc(OC)c2)o1,11.2
4,COc1ccc(NC(=S)NNC(=O)C2CC2c2ccc(C)cc2)cc1 (stereo not drawn),0.837
5,O=C(O)c1ccc(-n2nnnc2SCc2cccc(Br)c2)cc1,14.6
6,Cc1cc(=O)oc2c(C)c(OCC(=O)NCCN3CCOCC3)ccc12,10.8
7,CC(=O)Nc1ccc(NC(=O)CN(c2ccc(C34CC5CC(CC(C5)C3)C4)cc2)S(C)(=O)=O)cc1,10.6
8,COc1ccc(CCNC(=O)C/C(C)=N/NC(=O)C(c2ccccc2)c2ccccc2)cc1OC,-0.576
9,O=C(NCCc1c[nH]c2ccccc12)/C(=C\c1cccnc1)NC(=O)c1ccccc1Br,-8.31
10,COc1ccc(-c2nc3ccccc3c(=O)n2NC(=O)Cc2ccccc2)cc1,3.41
11,O=C(Nc1ccon1)c1sc2ccccc2c1Cl,11.1
12,CCOC(=O)c1ccc(NS(=O)(=O)c2ccc3oc(=O)[nH]c3c2)cc1,7.04
13,COc1ccc(CCNC(=O)NCCc2c[nH]c3ccccc23)cc1OC,8.08
14,C[C@]12CCC(=O)C=C1CC[C@@H]1[C@@H]2CC[C@@]2(C)[C@H]1CC[C@]2(O)C(=O)CO,13.2
15,CCOC(=O)CSc1ccc(C(=O)N2CCN(C)CC2)cc1[N+](=O)[O-],8.86
16,CC(=O)NC(Cc1ccccc1)C(=O)N1CCN(C(=O)c2cccs2)CC1 (stereo not drawn),5.81
17,COc1cccc(/C=C/C(=O)OCC(=O)c2ccc3c(c2)NC(=O)CO3)c1OC,0.422
18,O=C(c1ccc(S(=O)(=O)Cc2cc(F)ccc2F)c([N+](=O)[O-])c1)N1CCCC1,7.99
19,CCOC(=O)C(C)n1cnc2c(nnn2-c2cccc(Cl)c2)c1=O (stereo not drawn),2.98
20,Cc1ccc(C23CC4CC(CC(NC(=O)NN)(C4)C2)C3)cc1,14.4
21,NC1=Nc2ccccc2Oc2ccccc21,-3.79

row,SMILES,"hERG current change (%, negative = inhibition) at 1uM [%]"
1,CCOc1ccc(-c2n[nH]c(=S)n2Cc2ccccc2)cc1,18.2
2,CCc1nc(CNC(=O)C2CCC(=O)N(CCc3cccc(F)c3)C2)no1 (stereo not drawn),9.51
3,CCOc1nc(NCCO)nc(NCCC2=CCCCC2)n1,6.48
4,Cc1cc(-c2n[nH]c(=S)n2-c2ccccc2C)cs1,12.9
5,CCOc1cc(/C=N\Nc2nc(Nc3ccccc3)nc(N3CCOCC3)n2)ccc1OC(=O)c1ccco1,9.68
6,CCOc1ccc(S(=O)(=O)NCCC(=O)NCc2ccncc2)cc1,5.27
7,O=C(COc1ccc(F)cc1)NNC(=O)c1cc2ccccc2oc1=O,-8.77
8,O=C1CCCc2nn(-c3ccccc3)nc21,17.4
9,CCc1nc(N[C@@H](Cc2c[nH]c3ccccc23)C(=O)O)c2oc3ccccc3c2n1,0.556
10,S=C(NCc1ccccc1)NC1CCCCC1,15.7
11,COc1ccc(CNC(=O)Cn2nc(C(F)(F)F)c(Br)c2C)cc1,4.47
12,NS(=O)(=O)c1ccc(CNC(=O)c2cc(-c3cccnc3)nc3ccc(Br)cc23)cc1,12.9
13,NC(=O)Cn1c(=O)n(Cc2ccccc2)c(=O)c2cccnc21,8.1
14,CC(NC(=O)/C(=C\c1cccc([N+](=O)[O-])c1)NC(=O)c1ccco1)C(=O)O (stereo not drawn),42.3
15,CC(=O)OCC(=O)N1N=C(c2ccc3ccccc3c2)CC1c1ccccc1 (stereo not drawn),2.47
16,O=C(COC(=O)c1ccc(S(=O)(=O)N2CCOCC2)cc1)Nc1ccccc1F,5.91
17,Cc1cc(C)n2nc(SCc3c(F)cccc3Cl)nc2n1,11.1
18,O=C(COC(=O)c1ccc(S(=O)(=O)NCc2ccco2)cc1)Nc1ccccc1OC(F)F,-0.181
19,CC1(c2ccc(OC(F)F)cc2)NC(=O)N(CC(=O)Nc2cccc(F)c2)C1=O (stereo not drawn),4.87
20,Cc1ccc(NC(=O)COC(=O)C2CSC3(C)CCC(=O)N23)c(C)c1 (stereo not drawn),8.46
21,Br.N=c1n(CC(=O)c2ccc([N+](=O)[O-])cc2)c2ccccc2n1Cc1ccccc1Cl,9.63

# Reference: PMC4336329 (PLoS ONE, 2015)
